Results published in the supplement of paper PMC7125110.
± gives the standard error. Variants at the floor of the assay are shown more often than the library holds them.

B1: glmS ribozyme (parent)
chain: AUAAAAGCGCCAGAACUACAGAAAUGUAGUUGACGAGGAGGAGGUUUAUCGAAUUUUCGGCGGAUGCCUCCAAA

Assays:
Details in all cases: with glucosamine-6-phosphate
[1] = variants of: B1; assay: self-cleavage kobs at 640 uM GlcN6P; higher = faster cleavage; RNA array
How it was run: (§1)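 In situ transcription by E. coli RNA polymerase produced barcoded ribozyme variants on sequenced MiSeq chips, and a hybridised Cy3 probe tracked them at 37 °C. Glucosamine-6-phosphate was flowed in at 40 μM to 10 mM in HEPES/KCl/Mg(OAc)2 buffer. kcat and KM were taken from weighted Michaelis–Menten fits of kobs values from exponential decay fits.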

[2] = variants of: B1; assay: self-cleavage kobs at 2500 uM GlcN6P; higher = faster cleavage; RNA array
How it was run: as §1

[3] = variants of: B1; assay: self-cleavage kobs at 160 uM GlcN6P; higher = faster cleavage; RNA array
How it was run: as §1

[4] = variants of: B1; assay: self-cleavage kobs at 10000 uM GlcN6P; higher = faster cleavage; RNA array
How it was run: as §1

Variant	self-cleavage kobs at 640 uM GlcN6P [1]	self-cleavage kobs at 2500 uM GlcN6P [2]	self-cleavage kobs at 160 uM GlcN6P [3]	self-cleavage kobs at 10000 uM GlcN6P [4]
A6G G7A C10G U30C A39G	< 1e-05 s⁻¹	< 1e-05 s⁻¹		
G7U A15U U47G	< 1e-05 s⁻¹			
A6G G32A C67U	< 1e-05 s⁻¹		< 1e-05 s⁻¹	
G7C G32A G41U	< 1e-05 s⁻¹		< 1e-05 s⁻¹	
A6U U31C G35U A42C C68A C70U	< 1e-05 s⁻¹			
A6G C10U C11A G32A G43U	< 1e-05 s⁻¹			
A6G G21A G41A A64U G66C	< 1e-05 s⁻¹			
A6C G41A U69A C71G	< 1e-05 s⁻¹	< 1e-05 s⁻¹		
G7A C10G U65C	< 1e-05 s⁻¹			
G7C A33U U45C	< 1e-05 s⁻¹			
G7C A12U C71A	< 1e-05 s⁻¹	< 1e-05 s⁻¹	< 1e-05 s⁻¹	
G7A C10U U30G	< 1e-05 s⁻¹			
G7A A12U G60U C67U	< 1e-05 s⁻¹		< 1e-05 s⁻¹	
A6G C11G C16U G44A C71A	< 1e-05 s⁻¹			
A6G A15U U56G C70G	< 1e-05 s⁻¹			
A6U G21U A39G C50U	< 1e-05 s⁻¹			
A6G U57A C68G	7.18e-05 ± 2.3e-05 s⁻¹			
G7C C11A A36G	< 1e-05 s⁻¹	< 1e-05 s⁻¹		< 1e-05 s⁻¹
A6G G35U G63A	< 1e-05 s⁻¹	< 1e-05 s⁻¹		
G7C U46G	< 1e-05 s⁻¹	< 1e-05 s⁻¹	< 1e-05 s⁻¹	< 1e-05 s⁻¹
A6C G41U A42C U57C	< 1e-05 s⁻¹			

Variant	self-cleavage kobs at 640 uM GlcN6P [1]	self-cleavage kobs at 2500 uM GlcN6P [2]	self-cleavage kobs at 160 uM GlcN6P [3]	self-cleavage kobs at 10000 uM GlcN6P [4]
A6U C71G	5.72e-05 ± 1.3e-05 s⁻¹	2.85e-05 ± 1e-05 s⁻¹		2.69e-05 ± 8e-06 s⁻¹
G7C G9U C10U A39G G44A	< 1e-05 s⁻¹		< 1e-05 s⁻¹	
A6U U31G G40U A48C	< 1e-05 s⁻¹	< 1e-05 s⁻¹		
G7A U54A U57A U65A	< 1e-05 s⁻¹			
A6U G13C A42G C67A	< 1e-05 s⁻¹			
A6U C10G A52G	< 1e-05 s⁻¹			
G7U A36C C50A	< 1e-05 s⁻¹	< 1e-05 s⁻¹		
A6U C16U G29C A42U C61G	< 1e-05 s⁻¹	< 1e-05 s⁻¹	< 1e-05 s⁻¹	
A6G C11G G13C	< 1e-05 s⁻¹		< 1e-05 s⁻¹	
G7A U30G A48U U54C G66U	< 1e-05 s⁻¹			
A6U A12U G43U G63U U65C	< 1e-05 s⁻¹			
G7A G43A	< 1e-05 s⁻¹	< 1e-05 s⁻¹	< 1e-05 s⁻¹	< 1e-05 s⁻¹
A6G A64C C71U	< 1e-05 s⁻¹	< 1e-05 s⁻¹	< 1e-05 s⁻¹	
G7A A48C G66C	< 1e-05 s⁻¹	< 1e-05 s⁻¹	< 1e-05 s⁻¹	
A6U G66A	3.28e-05 ± 1.3e-05 s⁻¹	9.12e-05 ± 1.4e-05 s⁻¹		0.000155 ± 1.9e-05 s⁻¹
A6C C16U A33C G41A C58A	< 1e-05 s⁻¹			
A6U C10U G35C A48U G63A	< 1e-05 s⁻¹			
A6G C16G G41U G44C C67G C70A	< 1e-05 s⁻¹	< 1e-05 s⁻¹	< 1e-05 s⁻¹	
A6U C11G C68A C70G	< 1e-05 s⁻¹	< 1e-05 s⁻¹		
A6G C10U A14G	< 1e-05 s⁻¹			
A6G A14C G38U	< 1e-05 s⁻¹			< 1e-05 s⁻¹

Variant	self-cleavage kobs at 640 uM GlcN6P [1]	self-cleavage kobs at 2500 uM GlcN6P [2]	self-cleavage kobs at 160 uM GlcN6P [3]	self-cleavage kobs at 10000 uM GlcN6P [4]
G7U A52C C68U	< 1e-05 s⁻¹	< 1e-05 s⁻¹		
A6U C10G A53C G62U	< 1e-05 s⁻¹	< 1e-05 s⁻¹		
G7C G43A	< 1e-05 s⁻¹	< 1e-05 s⁻¹	< 1e-05 s⁻¹	< 1e-05 s⁻¹
A6G C11U C61U	< 1e-05 s⁻¹	< 1e-05 s⁻¹		
G7A C8U C16A G43C G44U G63U C68U	< 1e-05 s⁻¹	< 1e-05 s⁻¹	< 1e-05 s⁻¹	
G7C C16A U31A U65G	< 1e-05 s⁻¹	< 1e-05 s⁻¹	< 1e-05 s⁻¹	
A6C G7U A33U G43A U65C	< 1e-05 s⁻¹			
G7A C10A G38C U55A G59A G60A C61G U69A	< 1e-05 s⁻¹			
G7A A42U U49A	< 1e-05 s⁻¹	< 1e-05 s⁻¹		< 1e-05 s⁻¹
G7A C16G G32U U55A G63A C71A	< 1e-05 s⁻¹			
G7C A12C G35U G37C G60C U65A	< 1e-05 s⁻¹		< 1e-05 s⁻¹	
A6G C10U U30C G41C G44C	< 1e-05 s⁻¹			
G7U C8U G40U G62C	< 1e-05 s⁻¹			
A6C G51A C71U	< 1e-05 s⁻¹			
A6G G9C G60C G63A C68U	< 1e-05 s⁻¹			
A6C G35A A53U	< 1e-05 s⁻¹		< 1e-05 s⁻¹	
A6G C8U C16A	< 1e-05 s⁻¹	< 1e-05 s⁻¹		
A6C U55G G60U G62C	< 1e-05 s⁻¹	< 1e-05 s⁻¹	< 1e-05 s⁻¹	
A6U C11U A33C U47C U65A	< 1e-05 s⁻¹			< 1e-05 s⁻¹
A6C G41A U45C	< 1e-05 s⁻¹			< 1e-05 s⁻¹
